# From the supplement of paper PMC8728848
# The list shows a part of the results.
# Key:
# Experiment in all cases: glycan array binding signal (z-score within array); higher = stronger binding
# Conditions in all cases: glycan notation: IUPAC condensed, linker removed
# [1] = biological target: Gal(b1-3)[Fuc(a1-4)]GlcNAc(b1-3)Gal(b1-4)GlcNAc
# Method in brief: (§1)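 Negative Z-scores can be read as non-binding. The Z-score is calculated within each array and then averaged across arrays of one protein sequence at different concentrations or buffers and across linkers. Arrays, 3228 in all, were curated from the Consortium for Functional Glycomics database and kept only where the protein sequence was available.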
# [2] = biological target: Gal(b1-3)[Fuc(a1-4)]GlcNAc(b1-3)Gal(b1-4)[Fuc(a1-3)]GlcNAc
# Method in brief: as §1
# [3] = biological target: Gal(b1-3)[GlcNAc(b1-6)]GalNAc
# Method in brief: as §1
# [4] = biological target: Gal(b1-3)[Neu5Ac(a2-6)]GalNAc
# Method in brief: as §1
# [5] = biological target: Gal(b1-3)[Neu5Ac(a2-6)]GlcNAc(b1-6)Gal(b1-4)Glc
# Method in brief: as §1
# [6] = biological target: Gal(b1-3)[Neu5Ac(b2-6)]GalNAc
# Method in brief: as §1
# [7] = biological target: Gal(b1-4)Gal
# Method in brief: as §1
# [8] = biological target: Gal(b1-4)GalNAc(a1-3)[Fuc(a1-2)]Gal(b1-4)GlcNAc
# Method in brief: as §1
# [9] = biological target: Gal(b1-4)GalNAc(b1-3)[Fuc(a1-2)]Gal(b1-4)GlcNAc
# Method in brief: as §1
# [10] = biological target: Gal(b1-4)Glc
# Method in brief: as §1
# [11] = biological target: Gal(b1-4)Glc6S
# Method in brief: as §1
# [12] = biological target: Gal(b1-4)GlcNAc
# Method in brief: as §1
# [13] = biological target: Gal(b1-4)GlcNAc(a1-6)Gal(b1-4)GlcNAc
# Method in brief: as §1
# [14] = biological target: Gal(b1-4)GlcNAc(b1-2)Man(a1-3)Man(b1-4)GlcNAc(b1-4)GlcNAc
# Method in brief: as §1
# [15] = biological target: Gal(b1-4)GlcNAc(b1-2)Man(a1-3)[Gal(b1-4)GlcNAc(b1-2)Man(a1-6)]Man(b1-4)GlcNAc(b1-4)GlcNAc
# Method in brief: as §1
# [16] = biological target: Gal(b1-4)GlcNAc(b1-2)Man(a1-3)[Gal(b1-4)GlcNAc(b1-2)Man(a1-6)]Man(b1-4)GlcNAc(b1-4)[Fuc(a1-6)]GlcNAc
# Method in brief: as §1
# [17] = biological target: Gal(b1-4)GlcNAc(b1-2)Man(a1-3)[Gal(b1-4)GlcNAc(b1-2)][GlcNAc(b1-4)]Man(b1-4)GlcNAc(b1-4)GlcNAc
# Method in brief: as §1
# [18] = biological target: Gal(b1-4)GlcNAc(b1-2)Man(a1-3)[GlcNAc(b1-2)Man(a1-6)]Man(b1-4)GlcNAc(b1-4)GlcNAc
# Method in brief: as §1
# [19] = biological target: Gal(b1-4)GlcNAc(b1-2)Man(a1-3)[Man(a1-6)]Man(b1-4)GlcNAc(b1-4)GlcNAc
# Method in brief: as §1
# [20] = biological target: Gal(b1-4)GlcNAc(b1-2)Man(a1-6)Man(b1-4)GlcNAc(b1-4)GlcNAc
# Method in brief: as §1
# [21] = biological target: Gal(b1-4)GlcNAc(b1-2)Man(a1-6)[GlcNAc(b1-2)Man(a1-3)]Man(b1-4)GlcNAc(b1-4)GlcNAc
# Method in brief: as §1
# [22] = biological target: Gal(b1-4)GlcNAc(b1-2)Man(a1-6)[Man(a1-3)]Man(b1-4)GlcNAc(b1-4)GlcNAc
# Method in brief: as §1
# [23] = biological target: Gal(b1-4)GlcNAc(b1-2)[Gal(b1-4)GlcNAc(b1-4)]Man(a1-3)[Gal(b1-4)GlcNAc(b1-2)Man(a1-6)]Man(b1-4)GlcNAc(b1-4)GlcNAc
# Method in brief: as §1
# [24] = biological target: Gal(b1-4)GlcNAc(b1-2)[Gal(b1-4)GlcNAc(b1-4)]Man(a1-3)[Gal(b1-4)GlcNAc(b1-2)[Gal(b1-4)GlcNAc(b1-6)]Man(a1-6)]Man(b1-4)GlcNAc(b1-4)GlcNAc
# Method in brief: as §1
# [25] = biological target: Gal(b1-4)GlcNAc(b1-2)[Gal(b1-4)GlcNAc(b1-4)]Man(a1-3)[GlcNAc(b1-4)][Gal(b1-4)GlcNAc(b1-2)Man(a1-6)]Man(b1-4)GlcNAc(b1-4)GlcNAc
# Method in brief: as §1
# [26] = biological target: Gal(b1-4)GlcNAc(b1-2)[Gal(b1-4)GlcNAc(b1-6)]Man(a1-6)[GlcNAc(b1-4)][Gal(b1-4)GlcNAc(b1-2)Man(a1-3)]Man(b1-4)GlcNAc(b1-4)GlcNAc
# Method in brief: as §1
# [27] = biological target: Gal(b1-4)GlcNAc(b1-3)Gal(b1-3)GlcNAc
# Method in brief: as §1
# [28] = biological target: Gal(b1-4)GlcNAc(b1-3)Gal(b1-4)Glc
# Method in brief: as §1
# [29] = biological target: Gal(b1-4)GlcNAc(b1-3)Gal(b1-4)GlcNAc
# Method in brief: as §1
# [30] = biological target: Gal(b1-4)GlcNAc(b1-3)Gal(b1-4)GlcNAc(b1-3)Gal(b1-4)GlcNAc
# Method in brief: as §1
# [31] = biological target: Gal(b1-4)GlcNAc(b1-3)Gal(b1-4)[Fuc(a1-3)GlcNAc(b1-6)]Gal(b1-4)Glc
# Method in brief: as §1
# [32] = biological target: Gal(b1-4)GlcNAc(b1-3)Gal(b1-4)[Fuc(a1-3)]GlcNAc(b1-3)Gal(b1-4)[Fuc(a1-3)]GlcNAc
# Method in brief: as §1
# [33] = biological target: Gal(b1-4)GlcNAc(b1-3)GalNAc
# Method in brief: as §1
# [34] = biological target: Gal(b1-4)GlcNAc(b1-3)[Gal(b1-4)GlcNAc(b1-6)]Gal(b1-4)GlcNAc
# Method in brief: as §1
# [35] = biological target: Gal(b1-4)GlcNAc(b1-3)[Gal(b1-4)GlcNAc(b1-6)]GalNAc
# Method in brief: as §1
# [36] = biological target: Gal(b1-4)GlcNAc(b1-3)[GlcNAc(b1-6)]Gal(b1-4)GlcNAc
# Method in brief: as §1
# [37] = biological target: Gal(b1-4)GlcNAc(b1-6)Gal(b1-4)GlcNAc
# Method in brief: as §1
# [38] = biological target: Gal(b1-4)GlcNAc(b1-6)GalNAc
# Method in brief: as §1
binder,measurement,setting,value
Gal 4 (Canis lupus) (protein) MAYVPAPGYQPTYNPTLPYNKPIPGGLSVGMSVYIQGITSEHMRRFCVNFVAGAHPGSDIAFHFNPRFDGWDKVVFNSHLGGKWGSEEKKRSMPFRKGTHFELVFMVLAEHYKVVVNGNPFYEFGHRLPLQLVTHLQVEGDVELQSINFIGGTQPLGQGPGHTQQQPSSLPTMEGPPVFNPPVPFRKRLQGGLTVRRTVIIKGFVPFTSKSFVINFMVESSGDLALHINPRLTEGLVVRNSCLNGSWGSEDRKLSYNPFIPGQFFDLSIRCGMDRFKVYANGQHLFDFSHRLLALQNVDMLEINGDVTLSYIQV,glycan array binding signal (z-score),[1],-0.155
same,glycan array binding signal (z-score),[2],-0.153
same,glycan array binding signal (z-score),[3],-0.152
same,glycan array binding signal (z-score),[4],-0.151
same,glycan array binding signal (z-score),[5],-0.147
same,glycan array binding signal (z-score),[6],-0.154
same,glycan array binding signal (z-score),[7],-0.151
same,glycan array binding signal (z-score),[8],3.3
same,glycan array binding signal (z-score),[9],-0.145
same,glycan array binding signal (z-score),[10],-0.155
same,glycan array binding signal (z-score),[11],-0.121
same,glycan array binding signal (z-score),[12],-0.153
same,glycan array binding signal (z-score),[13],-0.157
same,glycan array binding signal (z-score),[14],-0.153
same,glycan array binding signal (z-score),[15],-0.139
same,glycan array binding signal (z-score),[16],-0.115
same,glycan array binding signal (z-score),[17],-0.147
same,glycan array binding signal (z-score),[18],-0.154
same,glycan array binding signal (z-score),[19],-0.15
same,glycan array binding signal (z-score),[20],-0.156
same,glycan array binding signal (z-score),[21],-0.149
same,glycan array binding signal (z-score),[22],-0.142
same,glycan array binding signal (z-score),[23],-0.148
same,glycan array binding signal (z-score),[24],-0.141
same,glycan array binding signal (z-score),[25],-0.15
same,glycan array binding signal (z-score),[26],-0.146
same,glycan array binding signal (z-score),[27],-0.146
same,glycan array binding signal (z-score),[28],-0.11
same,glycan array binding signal (z-score),[29],-0.155
same,glycan array binding signal (z-score),[30],-0.154
same,glycan array binding signal (z-score),[31],-0.148
same,glycan array binding signal (z-score),[32],-0.138
same,glycan array binding signal (z-score),[33],-0.137
same,glycan array binding signal (z-score),[34],-0.141
same,glycan array binding signal (z-score),[35],-0.155
same,glycan array binding signal (z-score),[36],-0.15
same,glycan array binding signal (z-score),[37],-0.153
same,glycan array binding signal (z-score),[38],-0.126
